# Several values for one entry are separate records, joined by “and”; a condition that tells them apart may be missing. Equal values may be shown once. The inconclusive results got no clear call from the source; some entries with a clear call stand among them for comparison. Potencies beside an inconclusive call are fits to weak or partial responses and may not hold up. Activity calls are given as the source filed them. Calls follow the shape of the dose curve; as a rule, active = well fitted cell-killing curve with a large enough effect in the repeat runs; inconclusive = weak or mixed curves, or effect the other way; inactive = no such curve, though single readings can be large or run the other way.
# Test: qHTS assay to identify aromatase inhibitors - cell viability counter screen (AID 743084);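 also: cells stimulated with testosterone during compound exposure; nearly all actives have a fitted effect of over 55% in size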
# Conditions: MCF-7 aro ERE viability, CellTiter-Fluor, 24 h; series mostly up to 70.3 µM
# Potency is read from the fitted curve at half-maximal effect; tags tell the direction and shape of the fitted curve.
row,SMILES,Potency
1,CC(=O)N/N=C/c1ccc([N+](=O)[O-])o1,"inconclusive: 33.5 µM [cytotoxic, single point]"
2,O=[N+]([O-])c1ccc(O)c2ncccc12,active: 10.6 µM
3,CN(C)CCC=C1c2ccccc2C=Cc2ccccc21,inactive
4,CC[C@]1(O)C[C@@H]2CN(CCc3c([nH]c4ccccc34)[C@@](C(=O)OC)(c3cc4c(cc3OC)N(C)[C@H]3[C@@](O)(C(=O)OC)[C@H](OC(C)=O)[C@]5(CC)C=CCN6CC[C@]43[C@@H]65)C2)C1,"inconclusive: 8.41 µM [cytotoxic, full curve] and inconclusive: 26.6 µM [cytotoxic, partial curve]"
5,CC1(CN2CCC(n3c(=O)[nH]c4ccccc43)CC2)OCc2ccccc2-n2cccc21 (stereo unspecified),inactive
6,C[n+]1c2cc(N)ccc2cc2ccc(N)cc21 (tested in a mixture with another compound),"inconclusive: 23.7 µM [rising, partial curve]"
7,COC(=O)c1ccc(O)cc1,"inconclusive: 43.7 µM [rising, partial curve, poor fit]"
8,Nc1nc(N)nc(-c2ccccc2)n1,inactive
9,NC(N)=NN=C(/C=C/c1ccc([N+](=O)[O-])o1)/C=C/c1ccc([N+](=O)[O-])o1,active: 5.31 µM
10,CCCCC/C=C\C=C\C(=O)OCC,active: 56.8 µM
11,COc1cccc2c1C(=O)c1c(O)c3c(c(O)c1C2=O)C[C@@](O)(C(=O)CO)C[C@@H]3O[C@H]1C[C@H](N)[C@H](O[C@@H]2CCCCO2)[C@H](C)O1,active: 13.3 µM
12,c1ccc2cc3c(ccc4ccccc43)cc2c1,inactive
13,C[C@@H](O[C@H]1OCCN(Cc2n[nH]c(=O)[nH]2)[C@H]1c1ccc(F)cc1)c1cc(C(F)(F)F)cc(C(F)(F)F)c1,"inconclusive: 33.5 µM [cytotoxic, single point]"
14,c1ccc(C(O[C@@H]2CCCN(CCc3ccc4c(c3)OCO4)C2)c2ccccc2)cc1,"inconclusive: 68.6 µM [cytotoxic, single point]"
15,Oc1cc2c(cc1O)[C@H]1c3ccc(O)c(O)c3OC[C@@]1(O)C2,active: 24.6 µM
16,CC(=O)[C@H]1CC[C@H]2[C@@H]3CCC4=CC(=O)CC[C@]4(C)[C@H]3CC[C@]12C,"inconclusive: 76.5 µM [cytotoxic, partial curve, poor fit]"
17,CC(C(O)c1ccccc1)N(C)CCOC(c1ccccc1)c1ccccc1 (stereo unspecified),"inconclusive: 33.5 µM [cytotoxic, single point]"
18,Oc1c(I)cc(Cl)c2cccnc12,"inconclusive: 12.2 µM [cytotoxic, full curve]"
19,CN1CC[C@H](c2c(O)cc(O)c3c(=O)cc(-c4ccccc4Cl)oc23)[C@H](O)C1,"inconclusive: 0.531 µM [cytotoxic, partial curve]"
20,COC(=O)c1ccccc1,"inconclusive: 48.1 µM [rising, partial curve, poor fit]"
21,CN(Cc1cnc2nc(N)nc(N)c2n1)c1ccc(C(=O)N[C@@H](CCC(=O)O)C(=O)O)cc1,"inconclusive: 0.596 µM [cytotoxic, full curve, poor fit]"

# Source: PubChem BioAssay (Tox21)
